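Each compound was tested at five concentrations against cells in 96-well plates for 48 hours. TGI denotes the concentration required for complete inhibition of growth.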 The source holds more than one record for some entries. This list holds those alone. The source may hold further records. For part of these data: Records of one sample usually come from different ranges of test concentrations, not given here; a value can be the end of its range. For part of these data: Values given together repeat one measurement across runs, samples, wells, individuals or studies. Brackets tell where a record comes from. A, B and so on number the origins entry by entry.

Among the test systems are LOX IMVI melanoma; UACC-62 melanoma; HOP-18 NSCLC; P388/ADR leukemia; HOP-62 NSCLC; IGROV1 ovarian; SF-539 CNS; HOP-92 NSCLC; SK-MEL-5 melanoma; KM12 colon; OVCAR-4 ovarian; XF 498 CNS; SR leukemia; NCI/ADR-RES ovarian; OVCAR-3 ovarian; SF-295 CNS; MALME-3M melanoma; CCRF-CEM leukemia; SNB-78 CNS; HCT-116 colon; RPMI-8226 leukemia; M19-MEL melanoma; HCT-15 colon; CAKI-1 renal; DMS 273 small cell lung; SW-620 colon; U251 CNS; UACC-257 melanoma; NCI-H460 lung; SK-OV-3 ovarian; HCC-2998 colon; HL-60(TB) leukemia; A549 NSCLC; SF-268 CNS; SNB-75 CNS; SN12C renal; COLO 205 colon; MCF7 breast; P388 leukemia; DMS 114 small cell lung; UO-31 renal; RXF 393 renal; HT29 colon; EKVX NSCLC; NCI-H522 lung; OVCAR-8 ovarian; SN12K1 renal; DLD-1 colon; NCI-H23 lung; SK-MEL-28 melanoma; MOLT-4 leukemia; SK-MEL-2 melanoma; OVCAR-5 ovarian; KM20L2 colon; K-562 leukemia; SNB-19 CNS; HS 578T breast; NCI-H226 lung; PC-3 prostate; MDA-MB-435.

Common to all, as to assay: NCI tumour cell line growth inhibition, 48 h

With `COc1cccc2c1C(=O)c1c(O)c3c(c(O)c1C2=O)C[C@@](O)(C(=O)CO)C[C@@H]3OC1CC(N2CCOCC2)C(O)C(C)O1` (some centres not stated), the TGI with LOX IMVI melanoma is 0.0318, 38.3, 84, 233 nM; with UACC-62 melanoma it was 0.0865 nM [1 test] and 7.62 nM [mean of 4 tests] and 9.73 nM [mean of 7 tests] and 16.9 nM [mean of 8 tests]; in the experiment on HOP-18 NSCLC, 17.2 nM, 687 nM, 121 nM; in the experiment on P388/ADR leukemia, 46.5 nM and 3.1 nM; in the experiment on HOP-62 NSCLC, 0.25 nM [1 test] and 36.6 nM, 4.72 nM [mean of 7 tests] and 323 nM [mean of 8 tests]; in the experiment with IGROV1 ovarian it was 0.00676 nM, 0.25 nM, 212 nM, 598 nM, 2.34 µM. The TGI is 0.25, 15.6, 133, 2.78 nM with SF-539 CNS; 8.82, 31.4, 161, 3.16 nM with HOP-92 NSCLC; 0.00608, 0.25, 24.4, 70, 2.8 nM in the experiment with SK-MEL-5 melanoma; 11.5 nM [mean of 2 tests] and 9.16 nM [mean of 4 tests] and 0.02 nM [mean of 5 tests] and 58.5 nM [mean of 6 tests] and 489 nM [mean of 8 tests] in the experiment on KM12 colon; 0.133 nM [1 test] and 95.2 nM [mean of 6 tests] and 424 nM, 16.4 nM [mean of 8 tests] in the experiment with OVCAR-4 ovarian; 9.25 nM, 44.6 nM, 2.79 nM in the experiment on XF 498 CNS. Also, the TGI is 7.32 nM and 171 nM with SR leukemia; 0.011 nM, 376 nM, 1.87 µM, 42.7 nM in the experiment on NCI/ADR-RES ovarian; 0.25, 26.6, 744, 19.5 nM in the experiment with OVCAR-3 ovarian; 0.00686, 0.25, 9.99, 39.8, 156, 3.39 nM in the experiment on SF-295 CNS; 19.4 nM, 73.9 nM, 3.26 nM in the experiment on MALME-3M melanoma; 8.69 nM, 97.8 nM, 1.06 µM, 49.4 nM with CCRF-CEM leukemia. The TGI in the experiment with SNB-78 CNS is 0.25 nM, 9.42 nM, 550 nM, 3.02 µM, 46.8 nM; in the experiment with HCT-116 colon it was 0.0602 nM, 288 nM, 395 nM, 2.23 µM; in the experiment with RPMI-8226 leukemia it was 7.77, 27.4, 184, 43.2 nM; with M19-MEL melanoma it was 0.25, 14.9, 40.3, 21.4 nM; in the experiment on HCT-15 colon, 0.25, 8.27, 47.1, 427, 291 nM; with CAKI-1 renal, 0.25 nM [1 test] and 49.1 nM [mean of 3 tests] and 0.0152 nM, 60.6 nM [mean of 4 tests] and 183 nM [mean of 8 tests]. The TGI with DMS 273 small cell lung is recorded as 0.00541, 8.05, 27.6, 78.2, 3.66 nM; in the experiment with SW-620 colon it was 0.00665 nM, 0.25 nM, 9.78 nM, 216 nM, 1.55 µM, 982 nM; in the experiment on U251 CNS, 0.00739 nM, 0.25 nM, 136 nM, 1.69 µM, 508 nM; in the experiment on UACC-257 melanoma it was 8.35, 18, 133, 4.32 nM; with NCI-H460 lung, 8.28, 48.5, 333, 18.3 nM; in the experiment on SK-OV-3 ovarian, 0.25, 258, 713, 105 nM. For the same molecule, the TGI in the experiment on HCC-2998 colon was 0.02 nM [mean of 4 tests] and 13.9 nM [mean of 6 tests] and 3.49 nM [mean of 7 tests] and 195 nM [mean of 8 tests]; in the experiment with HL-60(TB) leukemia, 8.07, 29, 173, 6.73 nM; in the experiment with A549 NSCLC, 0.25 nM [1 test] and 591 nM [mean of 4 tests] and 0.00738 nM [mean of 5 tests] and 1.16 µM [mean of 7 tests] and 436 nM [mean of 8 tests]; in the experiment on SF-268 CNS it was 0.25 nM [1 test] and 44.3 nM [mean of 6 tests] and 223 nM [mean of 7 tests] and 268 nM [mean of 9 tests]; in the experiment with SNB-75 CNS it was 0.25, 15.5, 37.9, 2.67 nM; in the experiment on SN12C renal, 0.25, 404, 768, 952 nM. The TGI was 0.00616, 0.25, 52, 126, 5.36 nM in the experiment with COLO 205 colon; 0.25 nM, 1.09 µM, 1.29 µM, 221 nM in the experiment on MCF7 breast; 0.02, 0.25, 22.9, 33 nM in the experiment on P388 leukemia; 18 nM, 125 nM, 6.03 nM in the experiment on DMS 114 small cell lung; 0.25 nM, 418 nM, 107 nM, < 16.3 nM with UO-31 renal; 0.0371, 10.5, 86.3, 5.86 nM in the experiment with RXF 393 renal. The TGI in the experiment with HT29 colon is 0.25 nM [1 test] and 56.4 nM [mean of 5 tests] and 94.7 nM [mean of 6 tests] and 1.42 µM [mean of 7 tests]; in the experiment on EKVX NSCLC, 8.3, 67.8, 264, 4.75 nM; in the experiment on NCI-H522 lung it was 0.25 nM, 7.65 nM, < 16.9 nM, 192 nM, 8.9 nM; in the experiment on OVCAR-8 ovarian, 0.00768, 8.66, 85.2, 507, 45.5 nM; in the experiment with SN12K1 renal it was 0.115 nM [1 test] and 22.7 nM [mean of 4 tests] and 19.6 nM [mean of 5 tests]; in the experiment on DLD-1 colon, 0.25 nM, 53.9 nM, 2.13 µM, 623 nM. In addition, the TGI in the experiment on NCI-H23 lung is given as 0.25, 15.9, 127, 28.6 nM; in the experiment on SK-MEL-28 melanoma, 0.25, 49.1, 209, 5.55 nM; in the experiment with MOLT-4 leukemia, 0.25, 8.48, 18, 110, 192 nM; in the experiment on SK-MEL-2 melanoma it was 0.25, 7.28, 20.5, 122, 2.54 nM; in the experiment on OVCAR-5 ovarian it was 0.25, 8.46, 42.3, 598, 11.2 nM; in the experiment on KM20L2 colon, 0.25, 7.58, 93.5, 382, 17.1 nM. In addition, the TGI is 8.99, 52.3, 837, 197 nM in the experiment on K-562 leukemia and 9.42 nM, 1.65 µM, 740 nM, 1.49 µM with SNB-19 CNS.
For the molecule `COc1ccc2c(c1[N+](=O)[O-])CC[C@@H]1[C@@H]2CC[C@]2(C)C(=O)CC[C@@H]12`, the TGI with UACC-62 melanoma is 23.7 µM and > 1 mM; in the experiment with HOP-92 NSCLC, 25 µM and 782 µM; in the experiment on HS 578T breast, 25 µM and 515 µM; in the experiment on OVCAR-4 ovarian it was 25 µM and 688 µM; with MALME-3M melanoma, 21.1 µM and > 1 mM; in the experiment with CCRF-CEM leukemia, 18 µM and > 1 mM. The TGI with HCT-116 colon is 22.3 µM and > 1 mM; in the experiment on NCI-H460 lung it was 25 µM and > 1 mM; with SK-OV-3 ovarian, 12.2 µM and > 718 µM; in the experiment on HL-60(TB) leukemia, 25 µM and > 1 mM; in the experiment on COLO 205 colon it was 25 µM and > 1 mM; with NCI-H226 lung it was 25 µM and > 1 mM. For the same molecule, the TGI in the experiment with SK-MEL-28 melanoma is 22.3 µM and > 1 mM; with SK-MEL-2 melanoma, 24.3 µM and 784 µM; in the experiment on K-562 leukemia, 25 µM and > 1 mM; in the experiment with PC-3 prostate it was 25 µM and > 1 mM; in the experiment with SNB-19 CNS, 25 µM and > 976 µM.
For the molecule `COC1C(OC(=O)/C=C/C=C/C=C/C=C/C(=O)O)CCC2(CO2)C1C1(C)OC1CC=C(C)C` (configuration not stated), the TGI with LOX IMVI melanoma is 859 nM and > 78.1 µM; in the experiment with UACC-62 melanoma it was 316 nM and 79.2 µM; with U251 CNS, 739 nM and > 100 µM; in the experiment on NCI-H460 lung, 584 nM and > 100 µM; in the experiment with SN12C renal, 926 nM and > 89.1 µM; with MDA-MB-435, 419 nM and 41.1 µM. Moreover, the TGI is 702 nM and 97.9 µM in the experiment on RXF 393 renal; 601 nM and > 82.1 µM with HT29 colon; 656 nM and 78.7 µM in the experiment with NCI-H522 lung.
Regarding `O=c1cc(-c2cccc(Cl)c2)[nH]c2cc3c(cc12)OCO3`, the TGI with IGROV1 ovarian is 554 nM and > 100 µM; with SK-MEL-5 melanoma, 377 nM and 15.8 µM; with MALME-3M melanoma it was 553 nM and > 100 µM.
In the case of `CC[C@@H]1C(=O)N(C)c2cnc(Nc3ccc(C(=O)NC4CCC(N5CCN(CC6CC6)CC5)CC4)cc3OC)nc2N1C(C)C` (some centres not stated), the TGI in the experiment on OVCAR-3 ovarian was > 4.29 µM [sample A, mean of 2 tests] and 105 nM [sample B, mean of 2 tests]; with A549 NSCLC it was > 10 µM [sample A, mean of 2 tests] and 989 nM [sample B, mean of 2 tests].

(Values after PubChem BioAssay (NCI).)
